In PMC12136788 one finds binding signal data, which are given here for 22 molecules.

First the molecules themselves.
T1: UNK ZnF1-3 (human, UniProt Q9C0B0 31-174)
T1 sequence: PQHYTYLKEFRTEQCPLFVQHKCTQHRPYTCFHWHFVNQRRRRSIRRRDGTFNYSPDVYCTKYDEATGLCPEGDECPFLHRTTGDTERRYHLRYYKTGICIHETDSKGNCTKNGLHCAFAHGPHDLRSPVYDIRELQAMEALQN

B1: 102312509_102312629_5825_3pUTR_ENSG00000166135_ENST00000299163|human|control|control (ssRNA)
RNA: GGGAGUUCUACAGUCCGACGAUCUACAGAACUGACAAUGGAAGGGCAAGAACACACAGCAGACACAAAACAAGAGGACUAGCCAUGGGCAAAAUAAACAGAGCUGUCAAAAAUCAGAAAAGGGAGACGGCCCUAAGAUGAUCACAACAGAGGAUUGAGCAUCA
B2: chr11:77336104:77336105:-_ENSG00000074201_ENST00000525064|hu_mus|hu_hu_hu_mus_False|18_108 (ssRNA)
RNA: GGGAGUUCUACAGUCCGACGAUCCUCGCACAUUGCAGUGAACAUCGCCUCCAAUGCUGACUUAUCACUGGGCACAAAUCGAAAUUCAGAAAUGGGUUCAACAUCAUCAUUGUCUUCUUCCUCUUCUUCAGAGAGAGGUUCUUUCAACAGAGGAUUGAGCAUCA
B3: 38495777_38518809_496_CDS_ENSG00000114739_ENST00000352511|human|control|control (ssRNA)
RNA: GGGAGUUCUACAGUCCGACGAUCCUCCCGUGUCUCAGCCUCCCCACGCCCAGAGCCGGCGCACAGCGAUCCCCAGAGGAGGGCGAGGGCCACCCAGGGCGCCGUCAUGUUCCGCGGCGCCGCCCCGCGCACACCCGGAGCCCGCAACAGAGGAUUGAGCAUCA
B4: chr2:150438701:150438702:-_ENSG00000168288_ENST00000303319|hu_mus|FALSE|FALSE (ssRNA)
RNA: GGGAGUUCUACAGUCCGACGAUCAUCAGAACCUGAAGAUCCUGCAGUUGAAAAGGCUCUUGGAUUGAUGACUCUUUUCACUAAAGAACAAAAUCCUGGGAGAUAGGAAACCAGUCUGGCUCUGUUACAGAGCACAUGGGCCAUCAACAGAGGAUUGAGCAUCA
B5: chr19:34954956:34954957:+_ENSG00000126261_ENST00000246548|hu_hu|FALSE|FALSE (ssRNA)
RNA: GGGAGUUCUACAGUCCGACGAUCGAUCAAUAAAGUAUAGUCCUGGAGGAAGUCAUCUGCUUGAAGCCGGCUGCCAUUUCUAAUUCCAAAUUCUGACAACUUCUUGUGAUUAUUAGCUUCCGUCUCUCCCUCUUCGGAAGAUAUCAACAGAGGAUUGAGCAUCA
B6: chr1:46159212:46159213:+_ENSG00000159596_ENST00000372025|hu_mus|hu_hu_hu_mus_True|38_98 (ssRNA)
RNA: GGGAGUUCUACAGUCCGACGAUCUCUGAUCCCUCCCAAGAAAGAUAGGAAACCGGCUCCAUAAGCCAUCUGAGUGAAAGCUAGGACGGGGAUAUAAGUUUUUGUCAUUACCAUGAGAAGUGGGGGAGCAGUAAAGGGGAUUAACAACAGAGGAUUGAGCAUCA
B7: chr7:54825262:54825263:-_ENSG00000132432_ENST00000352861|hu_hu|hu_hu_hu_mus_False|38_38 (ssRNA)
RNA: GGGAGUUCUACAGUCCGACGAUCCUGCCGGCUGGGCUCCACAAACUGCAUUACCUGAUCCAUGUUUGUUGGAUGGCGGAUUGAGAGCGUAGAGACAACGUAGCACUGAGAGAACCGAGCCCAACGGAACCGGAAGCUGGCAACCAACAGAGGAUUGAGCAUCA
B8: chr2:48026839:48026840:+_ENSG00000116062_ENST00000540021|hu_hu|hu_hu_hu_mus_False|68_88 (ssRNA)
RNA: GGGAGUUCUACAGUCCGACGAUCAUAGUGAGCCACUAGCGUCCUAAAUCUCGAACAGUGGCGGUCAUCUGAAAACUGGCCGAUGAAAAACUUGCCCAGUGAAGUGUCCACAAAGCAAACACCAUACACACGAGUGUGACCAGACAACAGAGGAUUGAGCAUCA
B9: chr17:17163782:17163783:-_ENSG00000141030_ENST00000268717|hu_hu|FALSE|FALSE (ssRNA)
RNA: GGGAGUUCUACAGUCCGACGAUCGAGUUCUGAGGGGUUGUUGGUUGAAUACACUUGUGCUAACUCGUGGUAUGCAUUGCUAAGAGGCUUAAUGAAUCUACCCACAAUUUGAGAUGUAUAUUUUGGUAGCUGUUGUACUUUGCCCAACAGAGGAUUGAGCAUCA
B10: chr1:174983830:174983831:-_ENSG00000120333_ENST00000367677|hu_hu|motif|central (ssRNA)
RNA: GGGAGUUCUACAGUCCGACGAUCUUCUGGAGCUCAUUUACCAUGUCGCUCGCUGGAUCCCAGAAAGUUGCCCAUGGUCAGCGGAGUGACGGAAGACUAUACGACUAAGCCUCCAGCGCCGCUUCACACCACGCGGACGGGACGCAACAGAGGAUUGAGCAUCA
B11: chr11:86991360:86991361:+_ENSMUSG00000018548_ENSMUST00000041282|mus_mus|motif|central (ssRNA)
RNA: GGGAGUUCUACAGUCCGACGAUCUUCUCGAAUGAUAUUUUUUGUAGGAUCAUUGCACGACUGGUGAACCAUUUCGGCACGAUAUUCAUACUUGGAAGUUUCAGGCAAGCCAGCCGAUAGUUCCAAAAAUACAGAUAAAUAAUACAACAGAGGAUUGAGCAUCA
B12: chrX:140365796:140365797:-_ENSMUSG00000031285_ENSMUST00000033642|mus_mus|mus_mus_mus_hu_False|78_98 (ssRNA)
RNA: GGGAGUUCUACAGUCCGACGAUCCUUCUCAUUACUCAAUGCCUGCAAGGUUCUGGUUCUGUAGAAGCUACAGUGGGCGCUGUGAGUGGGGCUAGGCAACCCAUUCAUCCGGGAGCCUCGCAUGUUCCUGGAUGUCUUAUCUCUCAACAGAGGAUUGAGCAUCA
B13: chr13:28239862:28239863:+_ENSG00000186184_ENST00000399697|hu_hu|FALSE|FALSE (ssRNA)
RNA: GGGAGUUCUACAGUCCGACGAUCCUCUUUAUGAGAGGGCAAUGUGUUUUUAAUUGUGUUAAUUAGAAAUCUUUUAUUGGUGCUAGCAAGAGGACACUUCAUCCAACCCAUGGGUCCCAUUGUUUCAGCUCUAGUUUUCCCACGCAACAGAGGAUUGAGCAUCA
B14: chr4:138441076:138441077:-_ENSG00000189184_ENST00000507846|hu_hu|FALSE|FALSE (ssRNA)
RNA: GGGAGUUCUACAGUCCGACGAUCACACAACAAAUAAAACAAUUGCAGUAACAAAAAUAUGAUUUUAUAAAUGUUCUUAUACUAAAAAUAAAAGCAAAAAUAUGAGAUCAUGCACUGGAGACAAAAGCUAAAAAUGAAUAGUUACAACAGAGGAUUGAGCAUCA
B15: 30439987_30442568_417_CDS_ENSG00000156261_ENST00000286788|human|control|control (ssRNA)
RNA: GGGAGUUCUACAGUCCGACGAUCAGAAGCCAUUACAAUCAUUUUUGCAGCAGGAUGCUGUACUUCUAGUUCUCUUAAAAUAGUUGCUGCAUCGUUUGUCACAAACAACUUCUCCAAGUGGUUGAUAACCAUUUUGUUCAUUCCCAACAGAGGAUUGAGCAUCA
B16: 39878683_39881377_2562_3pUTR_ENSG00000121892_ENST00000303538|human|control|control (ssRNA)
RNA: GGGAGUUCUACAGUCCGACGAUCUACCUUGUCAUCCUCCAUUCUUAGGCACUGUAACAAGGACUCAUAUGUCUCUGCAGAGUGGAACGAGGUAGGAUGUGUAAAAGACAGAACCUUAAGAAGUUCAAGUCCUGAACGGAUAGCCAACAGAGGAUUGAGCAUCA
B17: chr2:90693216:90693217:+_ENSMUSG00000027282_ENSMUST00000136872|mus_mus|FALSE|FALSE (ssRNA)
RNA: GGGAGUUCUACAGUCCGACGAUCCUCUUUGAUAACUCGGUCAAAGGAGGAUGAAUAUUCUUUUUGUACAGUUACAGAUCCUAACUCCUCAGGUUUCUCAGACUCCUGGUAAUACUGUAAGACUUUCCCAUGGACCACAGUUCCCAACAGAGGAUUGAGCAUCA
B18: 33185460_33185580_2885_3pUTR_ENSG00000170275_ENST00000320954|human|control|control (ssRNA)
RNA: GGGAGUUCUACAGUCCGACGAUCUUCCUAACAGGUCUUCCCUCUUCCUUCUGCCCUUGUCCACUAAAGUUUUUCACAAUAUGGCAGCUAGAAUGACCCUUGCAAAAUAUAAAUCAAUCAAGGCACUCCUCUGUUCAAACCCUCCAACAGAGGAUUGAGCAUCA
B19: chr3:170585912:170585913:-_ENSG00000163584_ENST00000463836|hu_hu|FALSE|FALSE (ssRNA)
RNA: GGGAGUUCUACAGUCCGACGAUCGUGAACAACAUUCCCGAGAUUUCCAGUUUUGCCAUUGACUUUAACCUUCUCCCGUAGAAAUUGCUCAAAAUUUCCAGAAUCAAAAAUUCCAUCUUCUACUGGAUGAGUAAGGUCCAAAUUCAACAGAGGAUUGAGCAUCA
B20: chr3:176767854:176767855:-_ENSG00000177565_ENST00000430069|hu_hu|hu_hu_hu_mus_False|18_58 (ssRNA)
RNA: GGGAGUUCUACAGUCCGACGAUCGACAUCCUUGUUACUGGGCACGUCCUGCCCUCCUUCCCGUAUGCAGUGUCUAAGUACUAACUGCGUAGGGCCACUCGUGCUGUUCUCACUGAGAUUCCAUAUUCUUGCCGUGGAGUCUCCCAACAGAGGAUUGAGCAUCA
B21: chr12:111160049:111160050:-_ENSG00000186298_ENST00000335007|hu_hu|FALSE|FALSE (ssRNA)
RNA: GGGAGUUCUACAGUCCGACGAUCAAACUCUCCGCAAUAAUUGGGCGCAGAAAACAGAGUGACCAACUGCCUCUUUGCAAAAAAUUCAUAUCCAUCUUCAACCACCUGAUGGGCUCUACAUAUAAGAUCCAAAUCAUGCUUAUGCAACAGAGGAUUGAGCAUCA
B22: 106621378_106621966_916_CDS_ENSMUSG00000040661_ENSMUST00000046502|mouse|control|control (ssRNA)
RNA: GGGAGUUCUACAGUCCGACGAUCCUUCUCCUCUUCCUCGUCCUCCUCGCUGACAGACUCACUGCUGUCCACGAUGUGCAGCGUAUCCUCCUCUCCAGAACUCAGCUCAAUUACCUCGUCUCGACUACUCUUUUCAUCCUCACUCAACAGAGGAUUGAGCAUCA

The list shows a part of the results.

For this assay, the target named is T1, UNK ZnF1-3. The assay can be described thus: nsRBNS (natural sequence RNA bind-n-seq); RBNS binding buffer (assumed for nsRBNS): 25 mM Tris pH 7.5, 150 mM KCl, 3 mM MgCl2, 0.01% Triton X-100, 500 ug/ml BSA, 20 U/ml SUPERase-In, 4 C; UNK is unkempt and MSI1 is Musashi-1; names of the RNAs are library labels; protein concentration not given here; high values mean tight binding.
For B1, the binding signal was 2.71 enrichment R. The value for B2 was 0.84 enrichment R; that for B3 was 1.28 enrichment R; that for B4 was 1.07 enrichment R.

In turn, B5 came in with a binding signal of 1.01 enrichment R.

In turn, B6 had a binding signal of 1.52 enrichment R.

For B7, the binding signal is 1.44 enrichment R. The value for B8 was 1.31 enrichment R. As for B9, the figure is 0.745 enrichment R; as for B10, 0.548 enrichment R. In turn, B11 showed a binding signal of 1.03 enrichment R. As for B12, the figure is 0.584 enrichment R; as for B13, 0.918 enrichment R; as for B14, 2.65 enrichment R. With B15, the binding signal worked out at 0.579 enrichment R. As for B16, the figure is 0.55 enrichment R; as for B17, 0.992 enrichment R; as for B18, 1.54 enrichment R. As for B19, the figure is 0.799 enrichment R; as for B20, 0.473 enrichment R; as for B21, 1.67 enrichment R. As for B22, the figure is 0.604 enrichment R.
